In the supplement of paper PMC13380429:

Columns and labels:
Conditions in all cases: 72 h
[1] = system: Vero E6; test: cell viability relative to DMSO; higher = less toxic
[2] = system: U2OS; test: as above
[3] = system: Calu-3; test: as above
[4] = system: Caco-2; test: as above
[5] = system: HepG2; test: as above
[6] = system: Vero E6; test: relative viability EC50 (midpoint between 100% and the lowest measured viability); higher = less toxic
[7] = system: U2OS; test: as above
[8] = system: Calu-3; test: as above
[9] = system: Caco-2; test: as above
[10] = system: HepG2; test: as above
[11] = system: Vero E6; test: drug sensitivity score (DSS) for viability; higher = more toxic; extreme values may be limits of the assay
[12] = system: U2OS; test: as above
[13] = system: Calu-3; test: as above
[14] = system: Caco-2; test: as above
[15] = system: HepG2; test: as above

Cc1cccc(CCN2CCC(C(=O)c3ccc(NS(C)(=O)=O)cc3)CC2)n1 [E-4031]
cell viability [%]
Conditions | [1] | [2] | [3] | [4] | [5]
1 nM | 94.7 | 99.1 | 91.1 | 93.9 | 89.5
10 nM | 97.1 | 98.3 | 95.6 | 96.1 | 97.5
100 nM | 91.5 | 101 | 82.8 | 97.4 | 96.9
1000 nM | 97 | 97.3 | 93.1 | 89 | 107
10000 nM | 106 | 98.6 | 95.2 | 99.6 | 100

Conditions | drug sensitivity score | relative viability EC50 [µM]
[6] | – | > 10
[7] | – | > 10
[8] | – | > 10
[9] | – | > 10
[10] | – | > 10
[11] | 0 | –
[12] | 0 | –
[13] | 0 | –
[14] | 0 | –
[15] | 0 | –
